Test results: the RNAGym collection of RNA variant scans (doi:10.1073/pnas.2313332121)
This sample is rich in variants without activity.

B1: TPR 5TU (parent)
chain: GGAUCUUCUCGAUCUAACAAAAAAGACAAAUCUGCCACAAAGCUUGAGAGCAUCUUCGGAUGCAGAGGCGGCAGCCUUCGGUGGCGCGAUAGCGCCAACGUUCUCAACUAUGACACGCAAAACGCGUGCUCCGUUGAAUGGAGUUUAUCAUG

Variants of: B1
Assay: polymerase ribozyme fitness, log enrichment relative to wild type (log ratio); higher = more active; in vitro selection for triplet polymerase activity
In short: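 In triplicate, a single round of in vitro selection was run on each mutant library, PCR-built and transcribed, covering one subunit of a heterodimeric triplet polymerase ribozyme. Frozen incubation at −7 °C followed annealing with a biotinylated primer, partner subunit and triplets, and extended constructs were then gel-excised, streptavidin-captured and taken through RT-PCR. Fitness is the logarithm of genotype enrichment over wild-type enrichment, from inverse-variance-weighted replicate averages of Illumina-sequenced inputs and outputs. […] only genotypes with ≥10 input reads and ≥1 read per output were kept.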

Row | Variant | polymerase ribozyme fitness (log ratio)
1 | G71A C76G G100U | ≤ -4.2
2 | A60U G83A C132U A150C | ≤ -4.2
3 | G62C G100U | ≤ -4.2
4 | U61A G67C G88A | ≤ -4.2
5 | G68A C76A G80U C105U | ≤ -4.2
6 | C75G C85G | ≤ -4.2
7 | A60U G83A A107C G133C | ≤ -4.2
8 | A73C G92U G128U | ≤ -4.2
9 | A66G C85A A122C | ≤ -4.2
10 | U61C C69A G81A C95G | ≤ -4.2
11 | C75U A91G G133C U145C | ≤ -4.2
12 | A60U A91U A142C U145G | ≤ -4.2
13 | C76G C85U C103U A119U | ≤ -4.2
14 | G70A C76A G83U G88C | ≤ -4.2
15 | G62A A64G | ≤ -4.2
16 | A60U C99G U139A G141C U148C | ≤ -4.2
17 | A66U C76U U101G C108G U146A | ≤ -4.2
18 | G68U G80A G143A | ≤ -4.2
19 | C69G C76G | ≤ -4.2
20 | G67A C93U C116G U127C | ≤ -4.2
21 | G68C C87G A107G C114G G124U | ≤ -4.2

Row | Variant | polymerase ribozyme fitness (log ratio)
22 | C76A C85A A97C C108G U111G | ≤ -4.2
23 | A60U C95G C96A C149G | ≤ -4.2
24 | G68A G71A G100A U139G | ≤ -4.2
25 | C63U C69G C85G A98G U104G G136C | ≤ -4.2
26 | A66C C93G | ≤ -4.2
27 | G71A C96A U127A U144C | ≤ -4.2
28 | G65U G84A G126A | ≤ -4.2
29 | C76G A91U C103U A120C U139C | ≤ -4.2
30 | G68C G88U | ≤ -4.2
31 | A64G A91U A97C C108U | ≤ -4.2
32 | C76A G80A G136C C149U | ≤ -4.2
33 | C75U C87A A137G A147C | ≤ -4.2
34 | G68C G88C C129A | ≤ -4.2
35 | G65A C75A C87U C114U | ≤ -4.2
36 | G74A C75G A91U A120U C132U | ≤ -4.2
37 | U61A G67C A142C U144A | ≤ -4.2
38 | A66C U78C | ≤ -4.2
39 | C72A G84U A107U A147C | ≤ -4.2
40 | A73G G92U C99U A115G U148G | ≤ -4.2
41 | C69U C76U C95A U104G C131A | ≤ -4.2
42 | U61G C87G C118A C125G A150U | ≤ -4.2

Row | Variant | polymerase ribozyme fitness (log ratio)
43 | A64G G67C A91G C93G C105U U151C | ≤ -4.2
44 | A66C C85G C95U | ≤ -4.2
45 | U61G G68A C95A A138C | ≤ -4.2
46 | G65C A73U G81U C85G A89U C95G | ≤ -4.2
47 | G71U A91U | ≤ -4.2
48 | G65C G68C A106G | ≤ -4.2
49 | C76U C96A U139G A142U G143C U151C | ≤ -4.2
50 | A73U A137C | ≤ -4.2
51 | A60U G92A U127C | ≤ -4.2
52 | G65A G128A | ≤ -4.2
53 | C75U A91G G140A | ≤ -4.2
54 | A73U G83C C87G G140C | ≤ -4.2
55 | C72G G88C A119U A138U U144A | ≤ -4.2
56 | G67A G92A | ≤ -4.2
57 | G62C U82G G86U C108A | ≤ -4.2
58 | G62A A73U C108G U139G | ≤ -4.2
59 | G65C C85A | ≤ -4.2
60 | G68A G84U A89U G94A | ≤ -4.2
61 | C63A C69U G84U A150G | ≤ -4.2
62 | G71A G80C A91U | ≤ -4.2
63 | C75A G94C G100A C108A C129G U146G | ≤ -4.2

Row | Variant | polymerase ribozyme fitness (log ratio)
64 | A66U G84U A97U C118U C149A | ≤ -4.2
65 | A73G G94A C125A G133U | ≤ -4.2
66 | U77A C85U U146G | ≤ -4.2
67 | U61A G68C C79U C93U U139C | ≤ -4.2
68 | A73G G80C C132A G141C | ≤ -4.2
69 | G62U G71A U77C G84U A110U C149A | ≤ -4.2
70 | U77C C85U C95U U109G U111G C118G U139A A150C | ≤ -4.2
71 | U61A C85G C132G | ≤ -4.2
72 | G71A C93A | ≤ -4.2
73 | C76G G83A U102A | ≤ -4.2
74 | C72A C87U | ≤ -4.2
75 | A60U A73C G94C G100A A107U | ≤ -4.2
76 | G67U A107U | ≤ -4.2
77 | A66U C85U A115U U139G U148C | ≤ -4.2
78 | A73U G80A C87U G152C | ≤ -4.2
79 | C76A C85U U151A | ≤ -4.2
80 | A64G G68A G86U C96A C123A | ≤ -4.2
81 | C76G G94C C95A U139A A142C U145G | ≤ -4.2
82 | G65A A66C G67C C87G | ≤ -4.2
83 | C75G G92U U101G | ≤ -4.2
84 | G74A C76G | ≤ -4.2
